Laboratory results taken from PubChem BioAssay AID493208 (National Center for Advancing Translational Sciences (NCATS), 2011).
Among all 44,000 compounds or so, about 340 (0.77%) were called active. Roughly 5% stayed inconclusive and do not appear here. Calls come from the whole dose curve; as a rule, active = well fitted inhibition curve with a large enough effect; inconclusive = small, poorly fitted or top-dose-only effect; inactive = flat fitted curve, though single readings scatter. The list shows a part of the results.

Experiment: Acumen qHTS Assay for Inhibitors of the mTORC1 Signaling Pathway in MEF (Tsc2-/-, p53-/-) Cells: Sytravon;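 note: plate controls were DMSO for no effect and rapamycin for full effect; nearly all actives have a fitted effect of over 50% in size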
Conditions: phospho-rpS6 immunofluorescence/PI, 24 h; series mostly up to 38.3 µM; activity change, negative = inhibition: at the top concentration
In short: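 Immunofluorescence of rpS6 phosphorylation in Tsc2-/-, p53-/- MEFs after 24 h compound exposure, normalized to propidium iodide signal. Activity is expressed as % positive cells, thresholded with 7.5 nM rapamycin.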

Activity change, negative = inhibition, inactive:
Cc1ccc(CN2CCCn3nc(C(=O)NCCC(C)C)cc3C2=O)cc1 0%
Cc1ccc(S(=O)(=O)N2CCC(Oc3ccc(-n4cnnn4)cc3)CC2)cc1 -1.68%
COc1ccc(CC(=O)Nc2ccc3nc(Nc4cccc(Cl)c4)cc(C)c3c2)cc1OC -7.94%
COc1ccc(CNCCSc2nnnn2-c2ccccc2)cc1 -11.8%
COc1ccccc1-n1cc(-c2ccc(C)cc2)nc1S(=O)(=O)CC(=O)Nc1ccccc1C(F)(F)F 0%
CCc1ccc(-n2nnc(-c3nc(-c4ccccc4)no3)c2C)cc1 -2.38%
COc1ccc(CCNC(=O)c2ccc3c(c2)N(Cc2cccc(C)c2)C(=O)c2ccccc2S3(=O)=O)cc1OC -1.49%
CCn1cc(S(=O)(=O)c2cc(C)cc(C)c2)c(=O)c2cc(F)c(N3CCOCC3)cc21 -1.33%
COc1ccccc1NC(=O)CSc1nnc(-c2cccc(Cl)c2)o1 0.573%
CCOc1ccccc1-c1nc(-c2ccc(-c3ccccc3)nc2OCC)no1 0.706%
COc1cc(OC)c(NC(c2nnc(-c3ccccc3)o2)c2ccc(F)cc2Cl)cc1Cl (stereo unspecified) 3.85%
COc1ccc2nc(N(Cc3cccnc3)C(=O)CCc3ccccc3)sc2c1 -0.453%
Cc1ccc(Nc2c3c(nc4nncn24)CCC3)cc1 1.7%
Cc1cc(C)cc(-n2cnc3cc(C(=O)NCCc4ccccc4)ccc32)c1 5.5%
Cc1ccc(C)c(N(C)C(=O)c2cn(C)c(=O)c3ccccc23)c1 5.18%
CCOC(=O)c1c(Oc2ccc(C(=O)OC)cc2)nnc(-c2ccccc2)c1-c1ccccc1 6.63%
Cc1ccc(CCNC(=O)CCc2cn(Cc3ccccc3C)c3ccccc23)cc1 -18.9%
COc1cc(NC(=O)Cn2c(SCc3ccc(F)cc3)nc3cccnc32)cc(OC)c1 -19.7%
CCN(C(=O)Cn1c(C(=O)OC)cc2oc3ccccc3c21)c1cccc(C)c1 -0.498%
O=C(c1cccc(Cl)c1)n1nc(-c2ccco2)nc1NCc1cccs1 5.48%
O=C(CNC(=O)c1ccccc1Cl)OCc1cc(=O)n2ccsc2n1 -5.76%
Brc1csc(CN2CCc3nc(Nc4ccccc4)ncc3C2)c1 0%
Cc1cccc(NC(=O)c2cc(S(=O)(=O)N3CCCCC3)c[nH]2)c1C 0%
Cc1cccc(Cn2c(SCc3ccc(C(=O)N4CCCCCC4)cc3)nc3ccncc32)c1 -1.16%
COc1cc(CN(C(=O)c2cc3ccccc3oc2=O)C2CCS(=O)(=O)C2)cc(OC)c1OC (stereo unspecified) 4.98%
Cc1ccc(Cn2c(=O)n(CCCCC(=O)NCCc3ccc(Cl)cc3)c(=O)c3ccccc32)cc1 -10.6%
Cn1c(=O)c2c(n3c4ccccc4nc13)NC(=O)CC2c1ccccc1F (stereo unspecified) -10%
CC1CCc2c(sc3nnn(Cc4ccc(F)cc4)c(=O)c23)C1 (stereo unspecified) -1.02%
O=C(NCc1ccccc1)c1cc(-c2cccc(Cl)c2)on1 -24.7%
CCc1nnc2c(Nc3ccc(Br)c(C)c3)nc3ccccc3n12 -13.8%
COc1ccc(S(=O)(=O)N2CCN(c3ccc(F)cc3)CC2)cc1-c1noc(C)n1 3.57%
CCc1ccccc1NC(=O)Cn1nnc(C(=O)OC)c1C(=O)OC 0.734%
CCN(CC)S(=O)(=O)c1ccc2c(c1)N(CC(=O)Nc1c(C)cccc1C)C(=O)CO2 -8.7%
COc1ccc(OC)c(N(CC(=O)NCc2ccccc2)S(=O)(=O)c2ccccc2)c1 2.61%
COc1ccc(NC(=O)CSc2ncc(-c3ccc(Cl)cc3)[nH]2)cc1OC 6.24%
CCc1ccc(NCc2cc3cc4c(cc3n(CC(=O)Nc3ccc(Cl)cc3)c2=O)OCO4)cc1 -11.5%
COc1ccccc1CCNC(=O)c1ccc2c(c1)c(C)c(C)n2C -7.01%
COC(=O)c1ccc(NC(=O)CC2C(=O)N(c3ccc(Cl)cc3)C(=O)N2Cc2cccs2)cc1 (stereo unspecified) -5.63%
COC(=O)c1cc(NC(=O)CCc2c(C)nc3c4c(C)cc(C)nc4nn3c2C)cc(C(=O)OC)c1 -5.01%
Cc1cc(S(=O)(=O)Nc2cccc(C(=O)O)c2)c(C)c(S(=O)(=O)c2ccccc2)c1 -17.2%
CCOC(=O)c1sc2ccccc2c1S(=O)(=O)Nc1ccc(N(C)C)cc1 -3.2%
CCOC(=O)c1sc(N2C(=O)c3oc4cc(C)c(C)cc4c(=O)c3C2c2cccc(O)c2)nc1C (stereo unspecified) -11.4%
COc1ccccc1NC(=O)CCCOc1cc(=O)n(C)c2ccccc12 -4.8%
CCc1ccccc1NC(=O)c1cc(S(=O)(=O)N(CC)c2ccccc2)ccc1F 12.4%
CC1CCN(c2nc3c(S(=O)(=O)c4ccccc4)nnn3c3ccsc23)CC1 -14%
COc1ccc(-c2nc(C)c(CCNC(=O)C(=O)Nc3cccc(F)c3)s2)cc1OC 3.68%
COc1ccc(CCNC(=O)c2nn(-c3ccc(C)cc3)c(=O)c3c2c2ccccc2n3C)cc1OC -3.04%
O=C(CC1N=C2c3ccccc3N=C(SCC(=O)Nc3cccc(C(F)(F)F)c3)N2C1=O)NCc1cccs1 (stereo unspecified) -1.55%
CCOC(=O)CCn1nc(-c2ccc(C)cc2)c2ccccc2c1=O 15.6%
Cc1ccc(C)c(Cn2c(=O)n(Cc3ccccc3)c(=O)c3c(C)c(C)sc32)c1 -14.9%
CCc1ccccc1NC(=O)Nc1nnc(N2CCCC2)s1 -0.736%
CCc1ccc(CN(Cc2ccco2)C(=O)c2ccccc2Cl)cc1 -15.4%
Cc1ccc(C(=O)COC(=O)c2cc(-c3ccccc3)nc3ccccc23)cc1C 0.529%
COc1cc(NC(=O)Cn2c(=O)n(Cc3ccccc3OC)c(=O)c3cccnc32)cc(OC)c1 1.4%
Cc1ccc(C)c(N2CCN(S(=O)(=O)c3ccc4oc(=O)c5ncn(C)c5c4c3)CC2)c1 0.96%
Cc1ccc(S(=O)(=O)c2nnn3c2nc(NCc2ccc(F)cc2)c2sccc23)cc1 -7.68%
CCCNC(=O)c1ccc2c(c1)N(Cc1cccc(C)c1)C(=O)c1ccccc1S2 -7.71%
COc1ccc(NC(=O)CCN2CCN(c3cccc(Cl)c3)CC2)cc1 -2.48%
CCN1c2ccccc2-n2cccc2C12CCN(C(=O)Nc1ccccc1C(F)(F)F)CC2 11%
CCOc1ccc(CNC(=O)Cn2c(=O)c3cccn3c3ccc(F)cc32)cc1 0%
CCOc1ccc(OCC)c(NC(=O)C2CCCN(S(=O)(=O)c3ccc4c(c3)oc(=O)n4C)C2)c1 (stereo unspecified) -2.6%
Cc1cccc(-c2nc(SCCCOc3ccccc3Cl)n3[nH]c(=O)cc3n2)c1 4.92%
O=C(Nc1ccc(F)c(Cl)c1)N1CCN(C(=O)c2nsc3ccccc23)CC1 3.25%
Cc1cc(C)cc(-n2c(SCC(=O)N3CCc4ccccc43)nc3c([nH]c4ccccc43)c2=O)c1 -0.326%
CC(=O)Nc1ccc(Nc2ncnc3c2c(-c2ccccc2)cn3-c2ccccc2)cc1 -24.1%
CCn1c(C(=O)N2CCC(C(=O)N3CCN(c4cccc(C)c4C)CC3)CC2)cc2sccc21 -2.57%
O=c1c2cc3c(cc2nc2sc(Nc4ccc(F)cc4F)nn12)OCO3 0%
Cc1ccc(NC(=O)Cn2nnnc2-c2ccccc2N)cc1 -11.7%
O=C(C1CCCN(S(=O)(=O)c2cccs2)C1)N1CCN(c2cccc(Cl)c2)CC1 (stereo unspecified) 0.282%
Cc1ccc(C)c(N2CCN(c3ncnc4c3nc3n4CCCCC3)CC2)c1 0.966%
Cn1c(=O)c2nc(SCC(=O)Nc3cc(Cl)ccc3Cl)n(C)c2n(C)c1=O -1.02%
NC(=O)CSc1nc2c(oc3ccccc32)c(=O)n1-c1ccccc1F -7.1%
COc1ccc(Cl)cc1NC(=O)N1CCC(CN2CCc3ccccc3C2)CC1 3.28%
CCOc1ccc(C(=O)NCC(c2ccco2)S(=O)(=O)c2ccc(C)cc2)cc1 (stereo unspecified) -14.9%
COc1cccc(CNC(=O)CSc2ccc(-c3sc(-c4ccccc4)nc3C)nn2)c1 -17.1%
CCc1ccc(-n2nc3cc(C)c(NC(=O)c4cc(Cl)ccc4OC)cc3n2)cc1 -0.94%
Cc1ccc(NC(=O)c2ccc(NC(=O)N3CCSc4ncccc43)cc2)cc1Cl -2.79%
O=C(Cn1cc(S(=O)(=O)Cc2ccc(F)cc2)c2ccccc21)NCCc1ccccc1 -1.68%
Cc1ccc2c(=O)cc(C(=O)Nc3sc4c(c3C(=O)NCc3ccco3)CCC4)oc2c1C 1.57%
COc1ccc(NS(=O)(=O)c2cc3[nH]c(=O)c(=O)[nH]c3cc2C)cc1OC -9.18%
COc1ccc(Nc2cc(C(=O)NCCc3ccccc3)c3ccccc3n2)cc1OC 3.65%
COc1ccc(OCCn2c(C3CC(=O)N(c4ccc(F)cc4)C3)nc3ccccc32)cc1 (stereo unspecified) -0.415%
Cc1ccc(CNC(=O)Cn2ncc3c(C)n(Cc4ccc(Cl)cc4)c(C)c3c2=O)cc1 1.43%
COc1ccccc1Nc1cc(C)nc2nc(-c3ccccc3)nn12 0%
CCCCOC(=O)c1ccc(NS(=O)(=O)c2c(C)nc3scc(C)n3c2=O)cc1 -12.4%
CCCN(C(=O)Cn1ncc2c(=O)oc3ccccc3c21)c1cccc(C)c1 2.2%
Cc1ccc(NC(=O)c2c(N3CCCC3=O)c3cc(C)ccc3n2C)c(C)c1 1.25%
CCC(C)NC(=O)Cn1c(=O)n(Cc2ccc(C(=O)NCCCOC)cc2)c(=O)c2ccccc21 (stereo unspecified) 2.97%
COC(=O)c1c(NC(=O)c2ccc(S(=O)(=O)N3CCCC(C)C3)cc2)sc2c1CCN(C(C)C)C2 (stereo unspecified) 0.933%
CC(C)c1ccc(NC(=O)CSc2ncc3c(n2)-c2ccccc2N(C)S3(=O)=O)cc1 11%
Cc1ccc(Cl)c2sc(N3CCN(C(=O)C4CC4)CC3)nc12 -2.82%
CSc1ccc(CNCc2c(C(=O)O)c(C)n(Cc3ccc(F)cc3Cl)c2C)cc1 -2.51%
Cc1ccccc1CNC(=O)c1c(C)oc2c1C1=NCCN1C=N2 -4.75%
Cc1ccccc1Cn1cc(S(=O)(=O)c2ccc(Cl)cc2)c(=O)c2cc3c(cc21)OCO3 6.85%
Cc1c(NC(=O)c2nc3ccccc3n(C)c2=O)cccc1[N+](=O)[O-] 10.2%
COc1cccc(N2CCN(C(=O)C3CCCN(S(=O)(=O)c4ccc(Br)s4)C3)CC2)c1 (stereo unspecified) -18.9%
